# From PubChem BioAssay AID686978 (National Center for Advancing Translational Sciences (NCATS), 2013)
# The campaign covered roughly 420,000 compounds. About 64,000 (15%) were called active. Inconclusive results, whose numbers are uncertain, are shown with a selection of clear calls. The call rests on the fitted dose curve; in most records, active means well fitted inhibition curve with a large enough effect; inconclusive means small, poorly fitted or top-dose-only effect; inactive means flat fitted curve, though single readings scatter. Potencies of inconclusive entries are left out as doubtful fits.
# Assay: qHTS for Inhibitors of human tyrosyl-DNA phosphodiesterase 1 (TDP1): qHTS in cells in absence of CPT; further: nearly all actives have a fitted effect of over 55% in size
# Settings: DT40 Tdp1-/- hTDP1 cells, no CPT, ATP luminescence, 48 h; activity change, negative = growth inhibition: at 46.2 µM (top of the series)
# Summary of the method: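 Growth kinetics read by CellTiter-Glo luminescence after ≥48 hr at 37 °C. Cells: DT40 Tdp1-/- stably carrying human TDP1, 400 per well, compound exposure in the absence of CPT (DMSO vehicle).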
# On the % scale 0 is the no-effect control and ±100 the full control effect; potency means the concentration at half of the fitted maximal effect; tags describe the fitted curve by direction and shape.
Structure (SMILES),Potency,"activity change, negative = growth inhibition"
CCOC(=O)C1=C(C)NC(=NC)SC1c1ccccc1 (stereo not drawn),"inconclusive [inhibitor, partial curve]",–
CCOC(=O)c1ccccc1NC(=O)C1CCN(c2ncnc3sc(C)c(C)c23)CC1,"inconclusive [inhibitor, partial curve, poor fit]",–
COc1cccc(-n2nnc3c(=O)n(Cc4ccccc4Cl)cnc32)c1,"inconclusive [inhibitor, single point]",–
NC(=O)c1ccc2c(c1)S(=O)(=O)c1ccccc1C2=O,active: 16.4 µM,–
CCOc1ccccc1NC(=O)c1cccc2c1C(=O)N(CCOC)C2,"inconclusive [inhibitor, single point]",–
COCCNc1sc(S(=O)(=O)c2ccc(C)cc2)nc1S(=O)(=O)c1ccc(C)cc1,"inconclusive [inhibitor, single point]",–
CCCC1CC(C(=O)NC(C(C)Cl)C2OC(SC)C(O)C(O)C2O)N(C)C1 (stereo not drawn),–,inactive: 4.22%
N#Cc1ccc(C(c2ccc(C#N)cc2)n2cncn2)cc1,–,inactive: -7.38% [at 21.1 µM]
Cc1ccc2c(CC(=O)Nc3ccc(N4CCN(C)CC4)cc3C)coc2c1,"inconclusive [inhibitor, single point]",–
CCOc1cc(/C=C(\C#N)C(=O)Nc2cccc(C(=O)O)c2)ccc1OCc1ccccc1Cl,"inconclusive [inhibitor, single point]",–
COc1ccccc1N1C(=O)C2CC(C)=C(C)CC2C1=O (stereo not drawn),–,inactive: -21.1%
Cc1ccc(CNCCCn2cnc3c(OCc4ccccc4)ncnc32)o1,"inconclusive [inhibitor, single point]",–
O=c1[nH]c(-c2ccncc2)nc2ccccc12,"inconclusive [inhibitor, single point]",–
Cc1cc(NC(=O)c2coc(=O)c(Br)c2)ccc1C(C)C,active: 1.84 µM,–
CN=C1S/C(=C\c2cc(C)n(-c3ccccc3F)c2C)C(=O)N1C,active: 23.1 µM,–
C[C@H](NC(=O)[C@@H]1CSC2c3ccccc3C(=O)N21)C(=O)NC1CCCCC1 (stereo partly drawn),–,inactive: 1.7%
O=C(O)c1ccc(S(=O)(=O)NC2CCCCC2)cc1,–,inactive: -0.783%
Cc1cccc(NC(=O)CSc2nnc(-c3ccco3)o2)c1,–,inactive: 4.91%
Nc1c(-c2ccc(F)cc2)nc2ncccn12,–,inactive: -3.35%
CC1(C)CC(=O)C=C(c2ccc(-c3cccc(C(N)=O)c3)cc2)C1=O,"inconclusive [inhibitor, single point]",–
CCC(C)c1ccccc1NC(=O)COC(=O)c1ccc(N2CCCC2)c([N+](=O)[O-])c1 (stereo not drawn),"inconclusive [inhibitor, single point]",–
CC(SCc1ccccc1)C(=O)N/N=C/c1cc2c(cc1Br)OCO2 (stereo not drawn),"inconclusive [inhibitor, single point]",–
Cc1nc(-c2ccccc2)sc1-c1nc(-c2ccccc2)ncc1S(=O)(=O)c1ccccc1,"inconclusive [inhibitor, single point]",–
CCCc1nc2oc3c(NCCCN(C)C)ncnc3c2c2c1CCCC2,"inconclusive [inhibitor, single point]",–
CCOc1cc(C(=O)N/N=C/c2cn(-c3ccccc3)nc2-c2cc3ccccc3o2)cc(OCC)c1OCC,active: 13 µM,–

Structure (SMILES),Potency,"activity change, negative = growth inhibition"
COc1ccc(N2CCN(S(=O)(=O)CCNC(=O)C34CC5CC(CC(C5)C3)C4)CC2)cc1,"inconclusive [inhibitor, single point]",–
O=C(Oc1ccc2cc(Br)ccc2c1)c1cccnc1,–,inconclusive: -30.5% [inhibitor]
CC(C)(C)c1ccc(OCC(=O)NCCN2CCOCC2)cc1,–,inactive: -9.38%
CC(Oc1ccc2c3c(c(=O)oc2c1)CCC3)C(=O)NC1CCN(Cc2ccccc2)CC1 (stereo not drawn),"inconclusive [inhibitor, single point]",–
O=C(CCS(=O)(=O)c1nc(-c2ccc3c(c2)OCO3)cc(C(F)(F)F)n1)Nc1ccccc1F,active: 8.2 µM,–
O=C(Nc1ccccc1)N(Cc1cccs1)C1CCCC1,"inconclusive [inhibitor, partial curve]",–
COc1ccc(C(O)c2ncc(C(F)(F)F)cc2Cl)cc1 (stereo not drawn),–,inactive: -10.5%
CC[N+]1(CC)CC2=Cc3c(ccc4ccccc34)C(C)C2C1 (stereo not drawn),active: 13 µM,–
Cc1cccc(N=C2C(=O)Nc3c(Cl)cccc32)c1,active: 29.1 µM,–
CCOC(=O)c1c(NC(=O)CSc2nc3ccc(OC)cc3[nH]2)sc2c1CC(C)(C)NC2(C)C,"inconclusive [inhibitor, single point]",–
OC(COc1c(Cl)cc(Cl)cc1Cl)CN1CCCCC1 (stereo not drawn),"inconclusive [inhibitor, single point]",–
CCOc1ccc(C(=O)Nc2ccc(S(=O)(=O)N3CCOCC3)cc2)cc1OCC,"inconclusive [inhibitor, single point]",–
O=C(NC(=S)Nc1cc([N+](=O)[O-])ccc1O)C1CC1,–,inactive: -4%
Cc1nn(C)c(C)c1NC(=O)Nc1ccc(Cl)c(Cl)c1,"inconclusive [inhibitor, single point]",–
COc1ccc(Nc2nc3ccccc3c3nnc(C)n23)cc1Cl,active: 6.51 µM,–
CC(CCc1ccccc1)NC(=O)c1ccc(NC(=O)c2cccc(Br)c2)cc1 (stereo not drawn),"inconclusive [inhibitor, single point]",–
CCCC(C)(C)C(=O)N1CCC1(C)C(=O)Nc1cccc(OC)c1 (stereo not drawn),"inconclusive [inhibitor, single point]",–
CCN1CCCC1CN(Cc1cc2ccc(C)c(C)c2[nH]c1=O)C(=O)Nc1ccccc1OC (stereo not drawn),"inconclusive [inhibitor, single point]",–
O=C(NC1CCCc2c1cnn2-c1ccccc1F)c1ccccc1N1CCOCC1 (stereo not drawn),active: 13 µM,–
COc1cc2c(C(F)(F)F)c(-c3ccsc3)oc(=O)c2cc1OC,"inconclusive [inhibitor, full curve, poor fit]",–
CC12CS(=O)(=O)CC1SC(=S)N2Cc1ccccc1 (stereo not drawn),–,inactive: -4.62%
COc1cc(/C=N/Nc2cc(C)nc(N)n2)ccc1O,"inconclusive [inhibitor, single point]",–
C=C(Br)Cn1c(CCC)nc2ccccc21,"inconclusive [inhibitor, single point]",–
CCOC(=O)C1CCCN(c2c(Nc3ccc(C)c(C)c3)c(=O)c2=O)C1 (stereo not drawn),"inconclusive [inhibitor, single point]",–
Cc1cccc(OCC(=O)N/N=C\c2cn(C)c3ccccc23)c1,–,inconclusive: -35.6% [inhibitor]

Structure (SMILES),Potency,"activity change, negative = growth inhibition"
CCn1cc(C(=O)NC2CCCCCC2)c(=O)c2ccc(C)nc21,"inconclusive [inhibitor, partial curve]",–
Cc1ccc(Nc2nc(N)nc(CCl)n2)c(C)c1,active: 10.3 µM,–
O=C(Cc1ccc(-c2ccccc2)cc1)NO,"inconclusive [inhibitor, single point]",–
COC(=O)c1cccc(Oc2cccc(Cl)n2)c1,–,inactive: -12.6%
CCn1ccnc1CN(C)Cc1cn(-c2ccc(C)cc2)nc1-c1ccc(F)cc1,"inconclusive [inhibitor, single point]",–
Cc1cccc(N2CCN(C(=O)c3cnn(-c4cccc(Cl)c4C)c3C3CCNCC3)CC2)c1C,active: 5.17 µM,–
CN1C(=O)c2ccccc2CC12c1ccccc1C(=O)N2C (stereo not drawn),"inconclusive [inhibitor, single point]",–
O=C(NC1=NCCS1)C12CC3CC(CC(C3)C1)C2,–,inactive: -33.9%
Cc1ccc(NC(=O)CSc2cn(CC(=O)N3CCCCCC3)c3ccccc23)cc1,"inconclusive [inhibitor, full curve]",–
C=CCOc1ccccc1CN1CCCC(CCC(=O)N(C)CCc2ccccn2)C1 (stereo not drawn),–,inactive: 2.36%
CC(=O)Nc1ccc(/C(C)=N/NC(=O)CN(c2ccccc2Br)S(C)(=O)=O)cc1,"inconclusive [inhibitor, single point]",–
CCOc1ccc(-c2c(C(=O)N/N=C/c3ccc(OC(C)C)cc3)nnn2-c2nonc2N)cc1,–,inconclusive: -36% [inhibitor]
O=C1CSC(=S)N1N=Cc1cccc2ccccc12,"inconclusive [inhibitor, single point]",–
CC(=O)Nc1ccc(NC(=O)C(C)OC(=O)c2cc(S(=O)(=O)N(C)C)ccc2N2CCCC2)cc1 (stereo not drawn),"inconclusive [inhibitor, single point]",–
Fc1ccc(-c2nc3c(Cl)cc(C(F)(F)F)cn3c2Cc2cccc(Cl)c2)cc1,–,inactive: -14.7%
CCCN(CCC)CCCNC(=O)c1cc2c(=O)n(C)c3ccccc3c2n1C,active: 25.9 µM,–
CCOc1ccc(-n2c(O)c(/C=N/Nc3nnc(C)c(=O)[nH]3)c3ccccc3c2=O)cc1,active: 0.92 µM,–
O=C(Nc1ccccc1)C1Cc2c(-c3ccc4c(c3)OCO4)ccnc2O1 (stereo not drawn),"inconclusive [inhibitor, single point]",–
O=C(NCC(c1cccnc1)N1CCc2ccccc2C1)C(=O)Nc1ccc(Cl)cc1 (stereo not drawn),active: 8.2 µM,–
COC(=O)CCc1sc(Nc2ccccc2)nc1-c1ccc(OC)cc1,active: 16.4 µM,–
Cc1cc(C)c(NC(=O)Cn2c(=O)n(Cc3ccco3)c(=O)c3ccc(C(=O)NC4CCCC4)cc32)c(C)c1,"inconclusive [inhibitor, full curve]",–
O=C(CN1CCN(C(=O)C2COc3ccccc3O2)CC1)Nc1ccc(F)cc1 (stereo not drawn),–,inactive: -13.6%
Cc1ccc2c(c1)N(CC(=O)NCc1ccccc1Br)C(=O)c1cccnc1O2,–,inactive: -25.7%
